# Laboratory results: PubChem BioAssay AID1768 (National Center for Advancing Translational Sciences (NCATS), 2009)
# Values joined by “and” are separate entries in the source; they are usually repeats but may differ in a detail not shown here. Identical values can stand only once. Out of some 270,000 compounds screened, about 620 (0.23%) were called active. The shares of active, inactive and inconclusive entries below differ from those in the screen. Calls come from the whole dose curve; as a rule, active = well fitted inhibition curve with a large enough effect in the polarisation, with a control signal flat (not every such curve was filed as active); inconclusive = small, poorly fitted or top-dose-only effect, or effect the other way, or a change in a side signal; inactive = no such curve, though single readings can be large or run the other way; the % refers to the polarisation. Potencies of inconclusive entries are doubtful fits and often do not repeat. A note “side channel” means that the fit belongs to a control or component signal, not to the main read-out.
# Biological target: Menin (Homo sapiens) (UniProt O00255)
# Sequence of UniProt O00255 (O00255 whole entry, looked up): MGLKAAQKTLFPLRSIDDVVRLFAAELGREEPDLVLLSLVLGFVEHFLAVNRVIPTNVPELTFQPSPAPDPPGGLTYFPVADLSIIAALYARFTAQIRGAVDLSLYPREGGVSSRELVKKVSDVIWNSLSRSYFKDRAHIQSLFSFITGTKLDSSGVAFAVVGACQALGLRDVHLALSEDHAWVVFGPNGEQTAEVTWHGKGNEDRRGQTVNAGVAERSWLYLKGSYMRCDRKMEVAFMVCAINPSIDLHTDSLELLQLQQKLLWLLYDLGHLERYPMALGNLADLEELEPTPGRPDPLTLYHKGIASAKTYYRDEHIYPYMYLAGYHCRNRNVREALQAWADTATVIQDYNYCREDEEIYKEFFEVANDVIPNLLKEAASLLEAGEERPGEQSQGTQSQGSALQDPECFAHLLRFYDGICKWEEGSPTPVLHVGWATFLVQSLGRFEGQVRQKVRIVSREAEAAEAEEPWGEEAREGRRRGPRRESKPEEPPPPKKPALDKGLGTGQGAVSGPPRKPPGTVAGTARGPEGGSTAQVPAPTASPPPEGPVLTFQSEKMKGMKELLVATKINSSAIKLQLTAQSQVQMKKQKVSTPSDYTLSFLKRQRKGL
# Assay: qHTS Assay for Inhibitors Targeting the Menin-MLL Interaction in MLL Related Leukemias: Competition With Texas Red Labeled MLL-derived Mutant Peptide; for FP activity change, negative = inhibition: % of control where 0% means no effect
# Conditions: fluorescence polarization; FP activity change, negative = inhibition: at 61.6 µM (top of the series)
# Potency is the fitted concentration of half-maximal effect; tags give direction and shape of the fitted curve or compound fluorescence and quenching.
SMILES,"FP activity change, negative = inhibition",Potency
NC(C(=O)O)C(O)c1ccc(O)c(O)c1 (stereo unspecified),inactive: -2.08%,–
COc1ccc(C)cc1Nc1nc(-c2ccccc2O)nc2ccccc12,–,"inconclusive: 10 µM [quencher, side channel, partial curve]"
Cc1ccc(C(C(=O)NC2CCCCC2)N(C(=O)c2csnn2)C2CCCC2)o1 (stereo unspecified),–,"inconclusive: 3.98 µM [fluorescent, side channel, full curve, poor fit]"
CCOC(=O)c1c(-c2ccc(C)cc2)csc1NC(=O)CCN1CCOCC1,–,"inconclusive: 8.91 µM [fluorescent, side channel, full curve, poor fit]"
O=c1oc(-c2ccccc2NS(=O)(=O)c2ccccc2)nc2ccccc12,–,"inconclusive: 39.8 µM [inhibitor, single point]"
CCCCCNC(=O)C1c2ccccc2Oc2ccccc21,–,"inconclusive: 10 µM [inhibitor, partial curve]"
N=C1/C(=C\c2ccc(SCc3ccccc3)o2)C(=O)N=C2SC=NN12,–,"inconclusive: 14.1 µM [quencher, side channel, partial curve]"
COC(=O)c1sc(S(=O)(=O)NCCC(=O)O)c(C(=O)OC)c1C,–,"inconclusive: 39.8 µM [inhibitor, single point]"
S=c1nc2ccccc2c2nc(-c3ccccc3Br)[nH]n12,–,"inconclusive: 12.6 µM [quencher, side channel, partial curve]"
c1cc2c(cc1C1=Nn3c(nnc3C3CCCCC3)SC1)OCO2,–,"inconclusive: 12.6 µM [fluorescent, side channel, partial curve]"
CC(=O)NNc1cc(N2CCOCC2)nc(N2CCOCC2)n1,–,"inconclusive: 28.2 µM [fluorescent, side channel, partial curve]"
CC1=C(C(=O)OC(C)C)C(c2ccco2)NC(=O)N1 (stereo unspecified),–,"inconclusive: 2.24 µM [inhibitor, single point]"
O=C(O)c1cccc(NC(=O)c2cc(-c3cccc(Cl)c3)nc3ccccc23)c1,–,"inconclusive: 17.8 µM [quencher, side channel, partial curve]"
O=C(NC(=S)NNC(=O)c1cc2ccccc2cc1O)c1ccco1,–,"inconclusive: 20 µM [quencher, side channel, partial curve]"
Cc1ccc(C(=O)N2CCN(c3ccc(NC(=O)COc4ccccc4C)cc3)CC2)cc1,inactive: -11.8%,–
Cc1ccc(-c2nnn(CC(=O)Nc3ccc4nn(-c5ccccc5)nc4c3)n2)o1,inactive: -19.1%,–
Cc1ccc(/C(=N\S(=O)(=O)c2ccc(Br)cc2)Nc2ccccc2C)cc1,–,"inconclusive: 39.8 µM [inhibitor, partial curve]"
CC(CNC(=O)COc1ccccc1)OC(=O)Nc1ccc(Cl)c(Cl)c1 (stereo unspecified),–,"inconclusive: 17.8 µM [quencher, side channel, partial curve]"
CCOc1cccc(C2C(C(=O)c3ccc(C)o3)=C(O)C(=O)N2c2nccs2)c1 (stereo unspecified),–,"inconclusive: 20 µM [quencher, side channel, partial curve]"

SMILES,"FP activity change, negative = inhibition",Potency
CC1CCC2C(=O)OC(Cc3ccccc3)CN2C1c1ccc(Br)cc1 (stereo unspecified),inactive: 0.442% [at 11.7 µM] and inactive: -1.02% [at 11.7 µM],–
C=CCOc1cccc(/C=C\c2nc(O)c([N+](=O)[O-])c(=O)[nH]2)c1,–,"inconclusive: 15.8 µM [quencher, partial curve]"
CN(CC(=O)Nc1ccccc1C(=O)N1CCCC1)S(=O)(=O)c1ccc(Cl)cc1,–,"inconclusive: 0.708 µM [fluorescent, side channel, full curve, poor fit]"
COc1ccc(N2C(=O)CSC23CCC(C(C)(C)C)CC3)cc1 (stereo unspecified),–,"inconclusive: 10 µM [fluorescent, side channel, partial curve]"
Cn1c(=O)c2c(nc(N3CCCCCC3)n2Cc2cccc3ccccc23)n(C)c1=O,–,"inconclusive: 3.55 µM [fluorescent, side channel, full curve, poor fit]"
CN(CCc1cn[nH]c1)C(=O)CC1C(=O)NCCN1Cc1ccccc1C(F)(F)F (stereo unspecified),–,"inconclusive: 44.7 µM [inhibitor, partial curve, poor fit]"
CCN1/C(=C/C=C/c2oc3ccc(-c4ccccc4)cc3[n+]2CC)Oc2ccc(-c3ccccc3)cc21,–,"inconclusive: 15.8 µM [fluorescent, side channel, partial curve]"
COc1cccc(/C=N/NC(=O)c2c(C)nc3ccc(Br)cn23)c1O,–,"inconclusive: 14.1 µM [quencher, side channel, partial curve]"
Cc1ccc([N+](=O)[O-])cc1S(=O)(=O)NCCc1c(C)[nH]c2ccccc12,–,"inconclusive: 28.2 µM [quencher, side channel, partial curve]"
Cc1cc(C)c(Cn2cnc3ccccc32)c(C)c1,–,"inconclusive: 39.8 µM [fluorescent, side channel, single point]"
Cc1ccc(NC(=O)CSc2ncc(S(=O)(=O)c3ccccc3)c(=O)[nH]2)cc1C,inactive: 0.968%,–
CCN(CC)c1ccc(NC(=S)NC(=O)c2ccco2)cc1,–,"inconclusive: 28.2 µM [quencher, side channel, single point]"
CN(C)c1ccc(/C=C/C(=O)c2ccccc2O)cc1,–,"inconclusive: 7.94 µM [quencher, side channel, full curve, poor fit]"
O=C(CSc1nnc(NC(=O)c2ccc(S(=O)(=O)N3CCOCC3)cc2)s1)Nc1ccccc1C(F)(F)F,–,"inconclusive: 31.6 µM [quencher, side channel, single point]"
COc1ccccc1NS(=O)(=O)c1ccc(N/N=C/c2ccccc2OCC(=O)O)c([N+](=O)[O-])c1,–,"inconclusive: 14.1 µM [quencher, side channel, partial curve]"
CCc1cc(C)cc(OCCOc2ccccc2/C=N/NC(C)=O)c1,–,"inconclusive: 12.6 µM [fluorescent, side channel, partial curve]"
COc1ccc(-c2onc3ccc(C(C)=O)cc23)cc1,–,"inconclusive: 0.794 µM [quencher, side channel, full curve, poor fit]"
O=C(CNC(=O)c1ccccc1F)OCC(=O)c1ccc(Cl)s1,–,"inconclusive: 28.2 µM [quencher, side channel, single point]"
Cn1nnc(NC(=S)NC(=O)c2ccco2)n1,–,"inconclusive: 35.5 µM [inhibitor, single point]"

SMILES,"FP activity change, negative = inhibition",Potency
Cn1c(=O)cc(OCCCC(=O)N2CCN(c3ccccc3)CC2)c2ccccc21,–,"inconclusive: 5.01 µM [inhibitor, single point]"
COC(=O)C1=C(C)NC(C)=C(C(=O)OCCCN2CCC(c3ccccc3)(c3ccccc3)CC2)[C@H]1c1cccc([N+](=O)[O-])c1,–,"inconclusive: 14.1 µM [fluorescent, side channel, partial curve]"
O=C(N/N=C\c1ccc(Oc2ccccc2)cc1)c1csnn1,–,"inconclusive: 25.1 µM [fluorescent, side channel, single point]"
Cc1ccccc1OCCCC(=O)Nc1ccc(Br)cc1,–,"inconclusive: 25.1 µM [quencher, side channel, single point]"
S=C(c1cn(CCOc2cccc3ccccc23)c2ccccc12)N1CCCC1,inactive: -2.87%,–
CC(C)(C)C(=O)Nc1sc2c(c1-c1nc3ccccc3[nH]1)CCCC2,–,"inconclusive: 3.55 µM [quencher, side channel, full curve]"
Cc1cc(Cl)c(OCCCNCc2ccccc2)c(Br)c1,–,"inconclusive: 5.62 µM [fluorescent, side channel, partial curve]"
COc1cccc(NC(=O)c2ccc(-c3ccc([N+](=O)[O-])cc3)o2)c1,–,"inconclusive: 17.8 µM [quencher, side channel, partial curve]"
Fc1ccccc1N1CCN(C(c2ccccn2)c2nnnn2C2CCCCC2)CC1 (stereo unspecified),–,"inconclusive: 14.1 µM [fluorescent, side channel, partial curve]"
CC(C)(C)C1CCc2c(sc(NC(=O)c3cccs3)c2C(N)=O)C1 (stereo unspecified),–,"inconclusive: 2 µM [quencher, side channel, full curve, poor fit]"
Cc1c(CC(=O)NCC(=O)O)c(=O)oc2cc3oc4c(c3cc12)CCCC4,–,"inconclusive: 39.8 µM [inhibitor, single point]"
Cc1cc2c(Nc3ccc(O)cc3)ncnc2s1,–,"inconclusive: 31.6 µM [quencher, side channel, partial curve]"
O=C(CN1c2ccccc2S(=O)(=O)c2ccccc21)NCc1ccccc1,–,"inconclusive: 35.5 µM [fluorescent, single point]"
CC1CCc2c(sc3ncnc(NS(=O)(=O)c4cccs4)c23)C1 (stereo unspecified),–,"inconclusive: 11.2 µM [quencher, side channel, partial curve]"
CC(C)Oc1ccc(Cn2c(-c3ccco3)n[nH]c2=S)cc1,inactive: 7.84%,–
O=C(c1ccc2ccccc2c1)c1c[nH]cc1-c1ccccc1,–,"inconclusive: 31.6 µM [quencher, side channel, single point]"
CC[C@@H](C)[C@@H](C(=O)N1CCN(C(=O)OC(C)(C)C)CC1)n1cc(CCCCNC(=O)OC(C)(C)C)nn1,–,"inconclusive: 1.12 µM [fluorescent, side channel, full curve]"
CC1(C)C(C=C(Cl)Cl)C1C(=O)Nc1ccc([N+](=O)[O-])cc1 (stereo unspecified),–,"inconclusive: 14.1 µM [quencher, side channel, partial curve]"
